Measured values as given in PMC4336329 (PLoS ONE, 2015).
Hit rate of the full screen: of about 310,000 compounds, about 14,000 (4.5%) showed an effect of 50% or more. Effects have a minus sign here. Some of the results follow.

target: human ether-à-go-go-related gene (hERG) potassium channel (human, UniProt Q12809); test: primary screen, population patch clamp on CHO cells stably expressing hERG
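Note: peak tail current of the secondary pulse compared with the same well before compound.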

Sequence of human ether-à-go-go-related gene (hERG) potassium channel (Q12809 whole entry, looked up): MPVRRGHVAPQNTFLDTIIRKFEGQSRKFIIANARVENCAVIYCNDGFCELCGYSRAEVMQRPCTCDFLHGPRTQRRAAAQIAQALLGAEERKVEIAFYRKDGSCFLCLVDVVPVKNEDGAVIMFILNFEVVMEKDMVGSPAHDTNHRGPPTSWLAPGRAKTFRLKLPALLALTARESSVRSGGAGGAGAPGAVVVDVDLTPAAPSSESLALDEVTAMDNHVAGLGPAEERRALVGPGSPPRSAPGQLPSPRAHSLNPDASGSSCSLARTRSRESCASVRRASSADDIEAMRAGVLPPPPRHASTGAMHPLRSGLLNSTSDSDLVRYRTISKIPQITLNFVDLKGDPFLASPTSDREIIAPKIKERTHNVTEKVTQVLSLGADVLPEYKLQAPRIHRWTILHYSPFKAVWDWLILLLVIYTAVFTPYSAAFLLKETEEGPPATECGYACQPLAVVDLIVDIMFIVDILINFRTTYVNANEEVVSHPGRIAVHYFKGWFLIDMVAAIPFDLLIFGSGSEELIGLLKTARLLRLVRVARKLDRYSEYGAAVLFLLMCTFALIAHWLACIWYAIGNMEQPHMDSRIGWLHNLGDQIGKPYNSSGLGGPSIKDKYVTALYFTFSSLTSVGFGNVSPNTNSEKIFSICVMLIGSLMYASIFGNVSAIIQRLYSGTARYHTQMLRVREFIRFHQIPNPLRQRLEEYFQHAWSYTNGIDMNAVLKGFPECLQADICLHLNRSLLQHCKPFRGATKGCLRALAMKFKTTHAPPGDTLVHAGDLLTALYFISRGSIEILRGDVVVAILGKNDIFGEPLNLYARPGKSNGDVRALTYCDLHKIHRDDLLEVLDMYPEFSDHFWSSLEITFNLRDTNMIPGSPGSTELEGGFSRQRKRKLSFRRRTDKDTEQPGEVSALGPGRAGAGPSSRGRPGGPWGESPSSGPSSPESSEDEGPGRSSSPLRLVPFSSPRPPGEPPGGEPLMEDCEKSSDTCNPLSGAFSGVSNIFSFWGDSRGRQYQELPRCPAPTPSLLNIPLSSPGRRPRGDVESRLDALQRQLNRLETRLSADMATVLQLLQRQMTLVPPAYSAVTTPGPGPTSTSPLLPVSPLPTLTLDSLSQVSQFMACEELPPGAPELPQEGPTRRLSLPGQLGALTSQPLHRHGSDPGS

First: c1csc(-c2ccc3ccccc3n2)c1
Second: Cc1ccc(-c2cc(-c3ccccc3)no2)cc1
The “hERG current change (%, negative = inhibition) at 10uM” value of the first is lower: 13.5% for the first, 15.5% for the second.

First: NS(=O)(=O)c1ccc(CNC(=S)Nc2ccc(F)c(Cl)c2)cc1
Second: O=C(NCc1ccc(Cl)cc1)C1CCN(S(=O)(=O)c2ccccc2)CC1
The “hERG current change (%, negative = inhibition) at 10uM” value of the first is higher: 33.9% for the first, 13% for the second.

Compared with `NC(=O)[C@@H]1CCCNc2c(I)cc([N+](=O)[O-])cc2C(=O)N[C@@H](CO)C(=O)N[C@@H](Cc2ccc(O)cc2)C(=O)N1`, `Cc1ccc(NC(=O)CCNS(=O)(=O)c2ccc3[nH]c(=O)oc3c2)cc1F` is lower in “hERG current change (%, negative = inhibition) at 10uM” value: 16.5% for the first, 10.2% for the second.

Compared with `CCN(CC)S(=O)(=O)c1ccc(C(=O)NCC(=O)N/N=C/c2ccccc2OC)cc1`, `Cc1ccccc1NC(=O)CCC(=O)N/N=C/c1ccc(F)cc1` is higher in “hERG current change (%, negative = inhibition) at 10uM” value: -20.2% for the first, 30% for the second.

Compared with `Cc1nc(Nc2cccc(Cl)c2)c2oc3ccccc3c2n1.Cl`, `CC1=Nc2cc(Cl)ccc2Oc2ccccc21` is higher in “hERG current change (%, negative = inhibition) at 10uM” value: 11.1% for the first, 12.7% for the second.

Compared with `COc1ccc(C(=O)n2nc(C)c(Br)c2C)cc1`, `COc1ccc(C(=O)NCc2nnc(SC)n2C2CCCCC2)cc1` is lower in “hERG current change (%, negative = inhibition) at 10uM” value: 16% for the first, -6.63% for the second.

First: Cc1nc(NC(=O)c2ccc(F)cc2)sc1C(=O)Nc1ccc2c(c1)CCC2
Second: Cc1cccc(/C(N)=N/OC(=O)c2ccc(F)cc2)c1
The “hERG current change (%, negative = inhibition) at 10uM” value of the first is higher: 13.1% for the first, -0.87% for the second.

Going from `CCCCCNc1nc(NCCCO)c(C#N)c2c1CN(C)CC2` to `CCn1c(C)c(C)c2cc(C(=O)NCCCN3CCOCC3)ccc21`, the “hERG current change (%, negative = inhibition) at 10uM” value rises from -75.2% to -0.854%.

First: Oc1ccc2ccccc2c1CN1CCN(c2ccccc2)CC1
Second: O=C(NCC(c1ccco1)N1CCc2ccccc2C1)c1ccccc1 (stereo not drawn)
The “hERG current change (%, negative = inhibition) at 10uM” value of the first is higher: 13.2% for the first, -19% for the second.

Going from `CCC(=O)N1CCC2(CC1)Oc1ccc(F)cc1C(=O)C21CC(c2ccccc2)=NO1` (stereo not drawn) to `O=C1CC2(CCN(C(=O)C(=O)c3c[nH]c4ccccc34)CC2)Oc2ccccc21`, the “hERG current change (%, negative = inhibition) at 10uM” value falls from -21.3% to -55.3%.

Going from `CCOc1ccc(N2CC(C(=O)Nc3ccccc3N3CCCC3)CC2=O)cc1` (stereo not drawn) to `COc1ccc(NC(=O)C(=O)NCC(c2ccco2)N2CCc3ccccc32)cc1` (stereo not drawn), the “hERG current change (%, negative = inhibition) at 10uM” value rises from -44.3% to 8.32%.

Going from `Cc1cccc(NCC(=O)N/N=C/c2cccc(Br)c2)c1` to `Cn1cccc1/C=N\NC(=O)Cc1ccc(Br)c2ccccc12`, the “hERG current change (%, negative = inhibition) at 10uM” value falls from -7.92% to -20.6%.

First: C=CCN(CC=C)C(=O)c1cc(Cl)ccc1[N+](=O)[O-]
Second: C=CCc1cc(Cl)ccc1OCCCn1ccnc1.O=C(O)C(=O)O
The “hERG current change (%, negative = inhibition) at 10uM” value of the first is higher: -2.88% for the first, -13.9% for the second.

First: Cc1ccc(S(=O)(=O)N2CC3(C)CN(S(=O)(=O)c4ccc(C)cc4)CC(C)(C2)C3=O)cc1
Second: Cc1ccc(S(=O)(=O)NNC(=O)C(=O)NNS(=O)(=O)c2ccc(C)cc2)cc1
The “hERG current change (%, negative = inhibition) at 10uM” value of the first is higher: 14.4% for the first, -1.99% for the second.

Compared with `O=C(O/N=C1\CCS(=O)(=O)c2sccc21)C1CC1`, `COc1ccc(CNC(=O)C2CCC(CNS(=O)(=O)c3cccs3)CC2)cc1` (stereo not drawn) is lower in “hERG current change (%, negative = inhibition) at 10uM” value: 14.8% for the first, -18.9% for the second.

First: NNc1nc2ccc(Cl)cc2s1
Second: C/C(=N\NC(=O)Cc1c(F)cccc1Cl)c1cccnc1
The “hERG current change (%, negative = inhibition) at 10uM” value of the first is lower: -8.65% for the first, 19.5% for the second.

Compared with `C[C@]12CCC3[C@@H](CCC4=CC(=O)CC[C@@]43C=O)C1CCC2=O` (stereo partly drawn), `COc1ccc(C(=O)OCC(=O)NC2CC2)cc1S(=O)(=O)N1CCOCC1` is lower in “hERG current change (%, negative = inhibition) at 10uM” value: 12% for the first, 9.9% for the second.

Compared with `COc1cc2c(cc1OC)C1=C(C#N)CN(C3CCCCC3)CN1CC2`, `COc1ccc(CCNC(=O)C2CCN(S(=O)(=O)c3ccc(OC)c(OC)c3)CC2)cc1OC` is higher in “hERG current change (%, negative = inhibition) at 10uM” value: -2.97% for the first, 7.84% for the second.

First: Cc1ccc2oc(=O)c(-c3ccc(O)cc3)c(C)c2c1
Second: COc1ccc(-c2c(NC(=O)c3ccco3)oc3c(C)cccc3c2=O)cc1
The “hERG current change (%, negative = inhibition) at 10uM” value of the first is higher: 11.8% for the first, 0.789% for the second.

Going from `Cc1ccc(CNC(=O)CN2C(=O)NC(C)(c3ccccc3Cl)C2=O)cc1` (stereo not drawn) to `CC1(C)Cc2nc3sc4c(=O)n(CC(=O)NCc5ccccc5)cnc4c3cc2CO1`, the “hERG current change (%, negative = inhibition) at 10uM” value falls from 12.1% to 1.01%.

Going from `O=C1Nc2ccc(Br)cc2/C1=N/N=C/C1=C(N2CCOCC2)C(=C\c2ccccc2)/CC1` to `O=C1CN=C(c2ccccc2)c2ccccc2N1`, the “hERG current change (%, negative = inhibition) at 10uM” value falls from 8.49% to 8.11%.

Compared with `Cc1ccc(N2C(=O)CS(=O)C(c3ccccc3)C2=O)cc1C` (stereo not drawn), `Cn1c(=O)n(Cc2ccccc2F)c2ccccc21` is lower in “hERG current change (%, negative = inhibition) at 10uM” value: 15.9% for the first, -16.3% for the second.

Compared with `CCN(CC(=O)Nc1c(F)cccc1F)C(=O)CNC(=O)c1sc2ccccc2c1Cl`, `CCOc1ccc(NC(=O)CN(C)C(=O)c2sc3ccccc3c2Cl)cc1OCC` is lower in “hERG current change (%, negative = inhibition) at 10uM” value: 16.3% for the first, -3.01% for the second.

Going from `Cc1cc(Nc2ccccc2)c2c([N+](=O)[O-])cc(C)c(C)c2n1` to `CCn1cc(/C=N\NC(=O)c2cc(-c3ccccc3OC)nc3ccccc23)c(C)n1`, the “hERG current change (%, negative = inhibition) at 10uM” value rises from -9.29% to -2.18%.

Compared with `CCC1CCCN1Cn1cnc2c([nH]c3ccc(C)cc32)c1=O` (stereo not drawn), `CCOc1ccccc1CNC(=O)C1CCN(c2nn3c(=O)cc(C)nc3s2)CC1` is higher in “hERG current change (%, negative = inhibition) at 10uM” value: -67.1% for the first, -15.8% for the second.

First: CNS(=O)(=O)c1cc(Br)ccc1S(=O)c1ccccc1C(=O)O (stereo not drawn)
Second: O=C(Nc1ccsc1C(=O)O)c1ccccc1Cl
The “hERG current change (%, negative = inhibition) at 10uM” value of the first is higher: 32.2% for the first, 19.2% for the second.

Compared with `Cc1ccc(C(CC(=O)O)Nc2nc(N3CCCCC3)nc(N3CCCCC3)n2)cc1` (stereo not drawn), `O=C(CNS(=O)(=O)c1c(Cl)cccc1Cl)N1CCCCCC1` is higher in “hERG current change (%, negative = inhibition) at 10uM” value: -1.53% for the first, 3.79% for the second.

Compared with `CCOC(=O)C1=C(C)Nc2nnnn2C1c1cccnc1` (stereo not drawn), `CCOC(=O)Cc1csc(NC(=O)c2cccc(N3C(=O)CCC3=O)c2)n1` is lower in “hERG current change (%, negative = inhibition) at 10uM” value: 17.4% for the first, -13.5% for the second.

First: CC1CCN(CCCNC(=O)c2nn(C)c3c2CS(=O)(=O)c2ccccc2-3)CC1
Second: CC1CCCCN1C(=O)COC(=O)c1ccc(=O)n(Cc2ccccc2)n1 (stereo not drawn)
The “hERG current change (%, negative = inhibition) at 10uM” value of the first is lower: -23.6% for the first, -0.118% for the second.

First: Cc1cc(C)c2[nH]c(O)c(N=NC(=S)NCC3CCCO3)c2c1 (stereo not drawn)
Second: Cc1ccc(-c2nnn(CC(=O)N(CC3CCCO3)C(C(=O)NC3CCCC3)c3ccc(F)cc3)n2)o1 (stereo not drawn)
The “hERG current change (%, negative = inhibition) at 10uM” value of the first is lower: -0.911% for the first, 8.83% for the second.

First: CC(C(=O)c1cn(C)c2ccccc12)c1ccccc1 (stereo not drawn)
Second: CCCC/C=C/C(NC(=O)CCc1ccccc1)c1ccccc1 (stereo not drawn)
The “hERG current change (%, negative = inhibition) at 10uM” value of the first is higher: 19.5% for the first, -22.7% for the second.

Compared with `COc1ccc(NC(=O)[C@H](C)NC(N)=O)cc1S(=O)(=O)Nc1cc(C)ccc1Br`, `Cc1ccc(SCCC(=O)OCC(=O)Nc2ccc(S(N)(=O)=O)cc2)cc1` is higher in “hERG current change (%, negative = inhibition) at 10uM” value: 3.07% for the first, 15.1% for the second.

Compared with `CN(C)c1ccc(C(O)Cc2nc3ccccc3n2C)cc1` (stereo not drawn), `COc1ccc2ccc3c(c2c1)N=C[C@]1(O3)N(C)c2ccccc2C1(C)C` is lower in “hERG current change (%, negative = inhibition) at 10uM” value: 3.73% for the first, -9.8% for the second.

First: CC1(C)CC(=O)N(c2ccc(Cl)c(Cl)c2)C(=O)C1
Second: COc1ccc(N2C(=O)c3cccc4cc(Br)cc(c34)C2=O)cc1
The “hERG current change (%, negative = inhibition) at 10uM” value of the first is lower: 7.72% for the first, 10.3% for the second.

Compared with `CC(=O)Nc1cccc(NC(=O)c2c(-c3ccccc3Cl)noc2C)c1`, `CCCCc1ccc(N=N/C(C(=O)Nc2ccc(NC(C)=O)cc2OC)=C(/C)O)cc1` is lower in “hERG current change (%, negative = inhibition) at 10uM” value: -25.9% for the first, -50.2% for the second.

Going from `COc1ccccc1-c1ccc2nnc(SC)n2n1` to `CCOCCCn1c(SCc2ccccc2)nnc1-c1ccncc1`, the “hERG current change (%, negative = inhibition) at 10uM” value falls from 12.5% to -14.1%.

Going from `Cc1nc2nc(C)c(NS(=O)(=O)c3ccc(C(C)(C)C)cc3)c(=O)n2[nH]1` to `O=C(/C=C/c1cccs1)Nc1ccc(S(=O)(=O)Nc2ncccn2)cc1`, the “hERG current change (%, negative = inhibition) at 10uM” value rises from 13.6% to 20.2%.

First: CSc1cccc(NC(=S)N(CCCN2CCCC2)Cc2cccs2)c1
Second: Cc1ccc(SCCCCN2CCNCC2)cc1.O=C(O)C(=O)O
The “hERG current change (%, negative = inhibition) at 10uM” value of the first is lower: -63.7% for the first, -18.2% for the second.

First: COc1ccccc1N1CCN(C(=O)c2ccc3nc(-c4ccco4)c(-c4ccco4)nc3c2)CC1
Second: COc1ccc(-c2nc(SCC(=O)N(CC(C)C)c3c(N)n(Cc4ccccc4)c(=O)[nH]c3=O)n[nH]2)cc1
The “hERG current change (%, negative = inhibition) at 10uM” value of the first is lower: -15% for the first, -6.02% for the second.

First: N#Cc1ccc(/C=C/C(=O)c2ccco2)cc1
Second: COC(=O)COc1ccc(/C=N/NS(=O)(=O)c2ccccc2)cc1
The “hERG current change (%, negative = inhibition) at 10uM” value of the first is lower: 1.68% for the first, 6.72% for the second.

Compared with `O=C(N/N=C/c1cc2c(cc1[N+](=O)[O-])OCO2)c1ccccn1`, `COc1ccc(/C=N/NC(=O)c2ccc3c(c2)OCCO3)c(OC)c1` is lower in “hERG current change (%, negative = inhibition) at 10uM” value: 12% for the first, 6.14% for the second.

Going from `CCNC(=O)COn1c(SCC(=O)NCC)nc2ccccc2c1=O` to `C/C(=N/NC(=O)CNC(=O)c1cccnc1)c1ccco1`, the “hERG current change (%, negative = inhibition) at 10uM” value rises from 12.5% to 32%.

Going from `N#C/C(=C\c1ccncc1)c1nc2ccccc2o1` to `COc1ccc(CCN(C(=O)C(F)(F)F)C(C(=O)NC2CCCCC2)c2cccs2)cc1` (stereo not drawn), the “hERG current change (%, negative = inhibition) at 10uM” value rises from -3.35% to 15.8%.

`CCCCN(C(=O)c1ccc(S(=O)(=O)N2CCOCC2)cc1)C1CCS(=O)(=O)C1` (stereo not drawn) was tested, and the “hERG current change (%, negative = inhibition) at 10uM” value was -15.2%.
